B1: CPEB3 Ribozyme (parent)
chain: UAACAGGGGGCCACAGCAGAAGCGUUCACGUCGCAGCCCCUGUCAGAUUCUGGUGAAUCUGCGAAUUCUGCUGUAUAUCUC

Read counts are not given, so values of variants with three or more changes are uncertain.

In the series the parent is B1. The experiment in a line: self-cleavage, relative activity (ratio to wild type); higher = more cleavage; in vitro, sequencing. The method in brief:
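CPEB3 self-cleaving ribozyme mutant libraries were made by rounds of error-prone PCR, barcoded, and transcribed in vitro with T7 RNA polymerase for 5 hours at 37°C. Cleavage occurred during transcription and a 15 min DNase I step before EDTA stop. RNAs were reverse transcribed with template switching and Illumina-sequenced, with DNA sequencing mapping barcodes to variants. Relative activity is the variant's cleaved/total read fraction divided by wild type's (minimum 5 reads), averaged across three batches.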
For the variant UAACAGGGGGCCACAGCAGAAGCGUUCACGUCGCAGCCACUGUCGGAUUCUGGUGAAUCUGCGAAUUCUGCCGUAUAUCUC [C39A A45G U72C], the self-cleavage is 0.14.

For the variant UAACAGGGGGCCACAGCAGAAGCGUUCACGUCGCAGCACCUGCCGGAUUCUGGUGAAUCUGCGAAUUCUGCUGUAUAUCCC [C38A U43C A45G U80C], the self-cleavage was determined as 0.25.

For the variant UAACAGGGGGCCACAGCAGAAGCGUUCACGUCGCAGCUCCUGUCAGAAUCAGGUGAAUCUGCGAAUUCUGCUGUAUAUCCC [C38U U48A U51A U80C], the self-cleavage was 0.18.

Regarding UAACAGGGGGCCACAGCAGAAGCGUUCACGUCGCAGCACCAGUCAGAUUCUGGUGAAUCCGCGAAUUCCGCUGUAUAUCUC [C38A U41A U60C U69C], the self-cleavage was found to be 0.4.

Regarding UAACAGGGGGCCACAGCAGAAGCGUUCACGUCGCAGCUCCUGUCAGAUUCUGGUGAAUCCGCGAAUUAUGCUGUAUAUCUC [C38U U60C C68A], the self-cleavage was determined as 0.1.

UAACAGGGGGCCACAGCAGAAGCGUUCACGUCGCAGCCACUGUCAGAUUCUGGUGACUCUGCGGAUUCUGCUGUAUAUCUC [C39A A57C A64G]: the self-cleavage was 0.15.

Consider UAACAGGGGGCCACAGCAGAAGCGUUCACGUCGCAGCCACAGUCAGAUUCUGGUGAAUCUGCGAAUCCUGCUGUAUAUCUC [C39A U41A U67C], for which the self-cleavage was found to be 0.17.

With UAACAGGGGGCCACAGCAGAAGCGUUCACGUCGCAGCACCUAUCAGAUUCUGGUGAAUCUGCGAAUUCUGCUGUUUAUCUC [C38A G42A A75U], the self-cleavage stood at 0.16.

As for UAACAGGGGGCCACAGCAGAAGCGUUCACGUCGCAGCUCCUGUCAGAUUCUGGUGAAUCUGCGAAUCCUGCUGUACAUCUC [C38U U67C U76C], the self-cleavage is 0.27.

With UAACAGGGGGCCACAGCAGAAGCGUUCACGUCGCAGCUCUUGUCAGAUUCUGGUGAAUCCGCGAAUUCUGCUGUAUAUCUC [C38U C40U U60C], the self-cleavage came out at 0.1.

For the variant UAACAGGGGGCCACAGCAGAAGCGUUCACGUCGCAGCCACUGUCAGAUUCCGGUGAAUCUGCGAAUUCUGCUGUAUAUCCC [C39A U51C U80C], the self-cleavage is 0.08.

Regarding UAACAGGGGGCCACAGCAGAAGCGUUCACGUCGCAGCCACUGUCAGAUUCAGGUGGAUCUGCGAAUUCUGCUGUAUAUCUC [C39A U51A A56G], the self-cleavage is 0.17.

For the variant UAACAGGGGGCCACAGCAGAAGCGUUCACGUCGCAGCACCUGUCAGAUUCCGGUGAAUCUGCGAAUUCUGCUGUAUAUCCC [C38A U51C U80C], the self-cleavage came to 0.25.

In the case of UAACAGGGGGCCACAGCAGAAGCGUUCACGUCGCAGCUCCCGUCAGAUUCUGGUGAAUCUGCGAGUUCUGCUGUAUAUCUC [C38U U41C A65G], the self-cleavage was 0.32.

Consider UAACAGGGGGCCACAGCAGAAGCGUUCACGUCGCAGCGCCUGUCUGAUUCUGGCGUAUCUGCGAAUUCUGCUGUAUAUCUC [C38G A45U U54C A56U], for which the self-cleavage turned out to be 0.15.

Regarding UAACAGGGGGCCACAGCAGAAGCGUUCACGUCGCAGCUCCUGUCAGAUUUUGGUGAAUCUGCGAAUUCUGCUGUAAAUCUC [C38U C50U U76A], the self-cleavage came out at 0.8.

In the case of UAACAGGGGGCCACAGCAGAAGCGUUCACGUCGCAGCUCCUGUCAGGUUCUGGUGAAUCUGCGAAUUCUGCUGUAUACCUC [C38U A47G U78C], the self-cleavage is 0.48.

As for UAACAGGGGGCCACAGCAGAAGCGUUCACGUCGCAGCACCUGUCAGAUUCUGGUUAGUCUGCGAAUUCUGCUGUAUAUCUC [C38A G55U A57G], the self-cleavage was found to be 0.08.

In the case of UAACAGGGGGCCACAGCAGAAGCGUUCACGUCGCAGCGCCUGUUAGAUUCUGGUGAAUCUGCGAAUUCUGCUGAAUAUCUC [C38G C44U U74A], the self-cleavage stood at 0.24.

For the variant UAACAGGGGGCCACAGCAGAAGCGUUCACGUCGCAGCGCCUGUCAGAUUCUGGUGAAUCUGCGAAUCCUGCUGUAUAUCCC [C38G U67C U80C], the self-cleavage stood at 0.09.

For UAACAGGGGGCCACAGCAGAAGCGUUCACGUCGCAGCUCCCGUCAGAUCCUGGUGAGUCUGCGUAUUCUGCUGUAGAUCUC [C38U U41C U49C A57G A64U U76G], the self-cleavage was 0.4.

With UAACAGGGGGCCACAGCAGAAGCGUUCACGUCGCAGCGCCUGUCAGAUUCUGGUGAAUCUGCGAAUUCUGCCGUAUAUCCC [C38G U72C U80C], the self-cleavage was 0.32.

UAACAGGGGGCCACAGCAGAAGCGUUCACGUCGCAGCUCCUGUCAGAAUCUGGUGAAUCUGCGAAUUCCGUUGUAUAUCUC [C38U U48A U69C C71U]: the self-cleavage is 0.14.

On to UAACAGGGGGCCACAGCAGAAGCGUUCACGUCGCAGCUCCAGUCAGAUUCUGGUGAAUCUGUGCGAUCUGCUGUAUAUCUC [C38U U41A C62U A64C A65G U66A], for which the self-cleavage was 0.11.

With UAACAGGGGGCCACAGCAGAAGCGUUCACGUCGCAGCUCCUGUCAGAUUCUGGUGAAUCUGCGAAUCCUGCCGUAUAUCUC [C38U U67C U72C], the self-cleavage came to 0.1.

UAACAGGGGGCCACAGCAGAAGCGUUCACGUCGCAGCACCUGUCAGAUCCUGGUGAAUCUGCGAGUCCUGCUGUAUAUCUC [C38A U49C A65G U67C]: the self-cleavage came to 0.11.

As for UAACAGGGGGCCACAGCAGAAGCGUUCACGUCGCAGCCACUGUCAGAUUCUGGUGAAUCUGCGAUUACUGCUGUAUAUCAC [C39A A65U U67A U80A], the self-cleavage amounted to 0.03.

As to UAACAGGGGGCCACAGCAGAAGCGUUCACGUCGCAGCUCCUGUCAGAUUCCGGUGAAUCUGCGAAUUCUGCUGUGUACCUC [C38U U51C A75G U78C], the self-cleavage was determined as 0.24.

With UAACAGGGGGCCACAGCAGAAGCGUUCACGUCGCAGCCACUGUCGGAUUCUGGUGAGUCUGCGGAUUCUACUGUAUAUCUC [C39A A45G A57G A64G G70A], the self-cleavage worked out at 0.05.

On to UAACAGGGGGCCACAGCAGAAGCGUUCACGUCGCAGCACCUGUCAGAUUCUGGCGAAUCUGCGAAUUCUGCUGUAUACCUC [C38A U54C U78C], for which the self-cleavage stood at 0.29.

Consider UAACAGGGGGCCACAGCAGAAGCGUUCACGUCGCAGCUCCUGUCAGAUUCUGGUGAAUCUGCGAAUACCGCUGUAUAUCCC [C38U U67A U69C U80C], for which the self-cleavage came to 0.19.

Take UAACAGGGGGCCACAGCAGAAGCGUUCACGUCGCAGCGCCUGUCUGAUUCUGGUGAAUCCGCGAAUUCUGCUGUAUAUCUC [C38G A45U U60C]: the self-cleavage worked out at 0.27.

As for UAACAGGGGGCCACAGCAGAAGCGUUCACGUCGCAGCUACUGUCAGAUUCUGGUGAAUCUGCGAAUUCUGCUGUACAUCUC [C38U C39A U76C], the self-cleavage turned out to be 0.09.

As for UAACAGGGGGCCACAGCAGAAGCGUUCACGUCGCAGCCACGGUCAGAUUCUGGUGGAUCGGCGAAUUCUGCUGUGUACCUC [C39A U41G A56G U60G A75G U78C], the self-cleavage is 0.04.

Values taken from the RNAGym collection of RNA variant scans (doi:10.1093/nar/gkz1192).
